Assay results reported in the supplement of paper PMC3334620.
Whole data set: some 33,000 sequences, median “E-score (-0.5 to 0.5)” near -0.011, cut for the highest 2% near 0.28. The list shows a part of the results.

The sequences below were run against T1, Gcr1 (UniProt P07261) (assay: PBM E-score (8-mer binding enrichment) (E-score (-0.5 to 0.5)); higher = stronger / more preferred TF binding; most listed sequences are background and not binding sites). Details: protein concentration: 100 nM; construct: GST-full length.
T1 sequence: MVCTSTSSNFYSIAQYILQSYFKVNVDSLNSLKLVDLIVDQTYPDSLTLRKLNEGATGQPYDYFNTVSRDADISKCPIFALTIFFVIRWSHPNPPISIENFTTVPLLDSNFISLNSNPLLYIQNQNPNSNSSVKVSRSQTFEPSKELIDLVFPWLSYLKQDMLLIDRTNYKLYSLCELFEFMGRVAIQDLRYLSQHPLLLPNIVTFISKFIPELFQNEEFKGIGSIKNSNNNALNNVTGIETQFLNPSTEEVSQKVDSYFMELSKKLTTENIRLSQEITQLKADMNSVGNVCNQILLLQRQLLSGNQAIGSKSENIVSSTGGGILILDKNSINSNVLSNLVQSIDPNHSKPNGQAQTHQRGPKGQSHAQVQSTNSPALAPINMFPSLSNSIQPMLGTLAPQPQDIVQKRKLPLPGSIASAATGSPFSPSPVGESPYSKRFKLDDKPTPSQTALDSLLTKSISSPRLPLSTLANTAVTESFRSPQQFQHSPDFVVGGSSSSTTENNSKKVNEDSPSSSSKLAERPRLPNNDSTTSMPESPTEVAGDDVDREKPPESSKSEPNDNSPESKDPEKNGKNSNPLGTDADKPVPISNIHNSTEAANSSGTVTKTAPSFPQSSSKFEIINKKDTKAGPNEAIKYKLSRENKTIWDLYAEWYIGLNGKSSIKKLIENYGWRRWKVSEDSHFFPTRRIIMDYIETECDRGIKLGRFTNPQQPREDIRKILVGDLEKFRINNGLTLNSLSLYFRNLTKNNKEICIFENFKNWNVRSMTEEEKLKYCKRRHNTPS
How it was run: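 E-scores (a modified Wilcoxon-Mann-Whitney statistic) were assigned by the Universal PBM Analysis Suite to every ungapped eight-base word pooled with its reverse complement. The input came from universal all-10-mer Agilent arrays made double-stranded by primer extension and probed with GST-tagged yeast transcription factors at about 100-200 nM. Fluorescent anti-GST detected bound protein, and masliner normalised the scans.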

Row | Sequence | PBM E-score
1 | CCATTTAC | 0.0873
2 | ATTTAGCC | 0.00789
3 | CACCGTCG | -0.317
4 | CCACTAAC | 0.21
5 | TGCATGAA | -0.0557
6 | GATACAAC | 0.0299
7 | ATTTACGG | 0.0521
8 | GACTCAAC | -0.0666
9 | ATTTTGAA | 0.0622
10 | AGCAGATA | -0.145
11 | CTTGCATA | 0.0241
12 | GTATTAAC | -0.0433
13 | CGTGGGAA | 0.00627
14 | TGCCAAAA | 0.0885
15 | AAAGTTCA | 0.0731
16 | ACTTTACG | 0.176
17 | GATAGAGC | -0.213
18 | ACTTCGGG | 0.0895
19 | CTGTCTTC | 0.00215
20 | CAAAGCAC | -0.179
21 | AAAGTCCC | -0.0568
22 | GGGGATCA | -0.0949

Row | Sequence | PBM E-score
23 | CGGCACGC | 0.0434
24 | TAGCGGAA | 0.145
25 | ACAGCTAG | 0.0504
26 | ATCCACTG | 0.0833
27 | ACCTTGCT | 0.00541
28 | ATATGGAT | 0.0997
29 | TTCAACAA | -0.0695
30 | CCAACTAG | 0.168
31 | GCCGAACA | -0.163
32 | CATGGCAA | -0.0906
33 | AACCTGAA | 0.0694
34 | TGCTGTAA | -0.168
35 | GGGCTTGA | -0.304
36 | CCAATTGC | -0.0718
37 | ACACAGGG | 0.0841
38 | AAGTAGAC | -0.0352
39 | CCCGAATA | 0.334
40 | AAATTATT | 0.15
41 | ATAAGGGG | 0.049
42 | ACTTATCA | 0.181
43 | TCTATCCA | -0.0724
44 | AGTTGTCA | 0.147

Row | Sequence | PBM E-score
45 | TAGACACA | -0.184
46 | ATACTTAC | -0.113
47 | GAATCAAA | 0.0321
48 | CGATGCAG | -0.0163
49 | ACTTCCTG | 0.319
50 | GCCTCAAC | -0.219
51 | TAATGCCA | 0.0406
52 | CGGAACAC | -0.0329
53 | ATACGCGC | 0.0636
54 | AGTCGTTG | -0.0345
55 | CAGAGGGA | -0.186
56 | ATGTCGCA | -0.031
57 | GCGATATA | 0.0571
58 | AAGAAGAA | 0.303
59 | AGCTATTG | 0.104
60 | CAGGGGGG | -0.429
61 | AGGTGTTC | -0.0887
62 | CCTACCGC | -0.072
63 | GCGGCGGA | 0.0513
64 | CCTTATGC | -0.063
65 | GAGCTATC | -0.167
66 | ATGACTGG | -0.129

Row | Sequence | PBM E-score
67 | CCGTCCCG | -0.166
68 | CTAGGAAA | -0.124
69 | CCGGCAAC | 0.318
70 | CAAGTAGA | 0.124
71 | AGGGACGA | -0.0975
72 | TGCATTAA | -0.0869
73 | TCTTACCA | 0.0792
74 | AAAATGGC | 0.127
75 | CACAGTTC | -0.103
76 | CACTTTCG | 0.152
77 | CATAGCGA | -0.163
78 | CGTCACCC | 0.0296
79 | AGGTGGGG | 0.198
80 | GTCCCTGA | 0.0914
81 | GAGATGGC | 0.0716
82 | GTCCAGAA | 0.0699
83 | ATATAGAA | 0.202
84 | GTAGACTA | -0.235
85 | AGGGTCAG | -0.235
86 | AGACAGAC | 0.0896
